# Measurements reported in the supplement of paper PMC8728848.
# The other results are listed elsewhere or left out.
# B1: PV12658A-bvu-496-32-496 (Bacteroides vulgatus) (protein)
# chain: DLDGAITTPAAVELALNGIYYSLPGNGFNVIFPTVSGSFKAGTMWRQEIVSAGNAVYYSERMLPTLSFSDATEWDADYAVIKNANFLETACNRMSDGEFSGNRRAEVLGEIAYLRALAYFNILVRYCEFWDMNSEYGVVMRNEAPSVSNALKARSSVADSYQYILDQLEIAIEKAPDWKKLSQASKEAAKALKARVLLYAGKYTEAVAAVNDAIDTNSPLPEANYGDVFDKFSTTKEILFARVFDQKDATNTSTRQQCYGNSPTKKQGYWGPTNEYVELVGDDPRADAIFSKVDSLMDSRSSAVAYNLKSVKKLLNDANDMPVIFSRVSELYLIKAEALYRSGASISEAYAPIRKLRERAGAEIILPANNEELETAIFNEWMLELSFENWHEWFAMIRFAGYTEKPDFTRLLALNKTLREALEKEYEKSEAQGDNYYQRIIDRRIDAIPSSEISSNLECKQNPGY
# What was measured:
# Test in all cases: glycan array binding signal (z-score within array); higher = stronger binding
# Settings in all cases: glycan notation: IUPAC condensed, linker removed
# [1] = target: Neu5Ac(a2-3)Gal(b1-4)GlcNAc(b1-6)GalNAc
# Summary of the method: (§1)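 Columns mapping to the same glycan were averaged after glycan names were converted to IUPAC-condensed notation. The data come from 3228 arrays in the Consortium for Functional Glycomics database, limited to those with an available protein sequence. Binding is reported as a within-array Z-score averaged across arrays of one protein sequence and across linkers.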
# [2] = target: Neu5Ac(a2-3)Gal(b1-4)GlcNAc(b1-6)[Gal(b1-3)]GalNAc
# Summary of the method: as §1
# [3] = target: Neu5Ac(a2-3)Gal(b1-4)GlcNAc(b1-6)[Neu5Ac(a2-3)Gal(b1-3)]GalNAc
# Summary of the method: as §1
# [4] = target: Neu5Ac(a2-3)Gal(b1-4)GlcNAc6S
# Summary of the method: as §1
# [5] = target: Neu5Ac(a2-3)Gal(b1-4)[Fuc(a1-3)]GlcNAc
# Summary of the method: as §1
# [6] = target: Neu5Ac(a2-3)Gal(b1-4)[Fuc(a1-3)]GlcNAc(b1-2)Man
# Summary of the method: as §1
# [7] = target: Neu5Ac(a2-3)Gal(b1-4)[Fuc(a1-3)]GlcNAc(b1-3)Gal
# Summary of the method: as §1
# [8] = target: Neu5Ac(a2-3)Gal(b1-4)[Fuc(a1-3)]GlcNAc(b1-3)Gal(b1-4)GlcNAc
# Summary of the method: as §1
# [9] = target: Neu5Ac(a2-3)Gal(b1-4)[Fuc(a1-3)]GlcNAc(b1-3)Gal(b1-4)[Fuc(a1-3)]GlcNAc(b1-3)Gal(b1-4)[Fuc(a1-3)]GlcNAc
# Summary of the method: as §1
# [10] = target: Neu5Ac(a2-3)Gal(b1-4)[Fuc(a1-3)]GlcNAc(b1-3)GalNAc
# Summary of the method: as §1
# [11] = target: Neu5Ac(a2-3)Gal(b1-4)[Fuc(a1-3)]GlcNAc(b1-6)[Gal(b1-3)]GalNAc
# Summary of the method: as §1
# [12] = target: Neu5Ac(a2-3)Gal(b1-4)[Fuc(a1-3)]GlcNAc(b1-6)[Neu5Ac(a2-3)Gal(b1-3)]GalNAc
# Summary of the method: as §1
# [13] = target: Neu5Ac(a2-3)Gal(b1-4)[Fuc(a1-3)]GlcNAc6S
# Summary of the method: as §1
# [14] = target: Neu5Ac(a2-3)Gal6S(b1-4)GlcNAc
# Summary of the method: as §1
# [15] = target: Neu5Ac(a2-3)Gal6S(b1-4)[Fuc(a1-3)]GlcNAc
# Summary of the method: as §1
# [16] = target: Neu5Ac(a2-3)GalNAc
# Summary of the method: as §1
# [17] = target: Neu5Ac(a2-3)GalNAc(b1-4)GlcNAc
# Summary of the method: as §1
# [18] = target: Neu5Ac(a2-3)[GalNAc(b1-4)]Gal(b1-4)Glc
# Summary of the method: as §1
# [19] = target: Neu5Ac(a2-3)[GalNAc(b1-4)]Gal(b1-4)GlcNAc
# Summary of the method: as §1
# [20] = target: Neu5Ac(a2-3)[GalNAc(b1-4)]Gal(b1-4)GlcNAc(b1-3)GalNAc
# Summary of the method: as §1
# [21] = target: Neu5Ac(a2-3)[Neu5Ac(a2-6)]GalNAc
# Summary of the method: as §1
# [22] = target: Neu5Ac(a2-6)Gal
# Summary of the method: as §1
# [23] = target: Neu5Ac(a2-6)Gal(b1-3)GlcNAc(b1-3)[Gal(b1-4)GlcNAc(b1-6)]Gal(b1-4)Glc
# Summary of the method: as §1
# [24] = target: Neu5Ac(a2-6)Gal(b1-4)Glc
# Summary of the method: as §1
# [25] = target: Neu5Ac(a2-6)Gal(b1-4)GlcNAc
# Summary of the method: as §1
# [26] = target: Neu5Ac(a2-6)Gal(b1-4)GlcNAc(b1-2)Man
# Summary of the method: as §1
# [27] = target: Neu5Ac(a2-6)Gal(b1-4)GlcNAc(b1-2)Man(a1-3)Man(b1-4)GlcNAc(b1-4)GlcNAc
# Summary of the method: as §1
# [28] = target: Neu5Ac(a2-6)Gal(b1-4)GlcNAc(b1-2)Man(a1-3)[Gal(b1-4)GlcNAc(b1-2)Man(a1-6)]Man(b1-4)GlcNAc(b1-4)GlcNAc
# Summary of the method: as §1
# [29] = target: Neu5Ac(a2-6)Gal(b1-4)GlcNAc(b1-2)Man(a1-3)[GlcNAc(b1-2)Man(a1-6)]Man(b1-4)GlcNAc(b1-4)GlcNAc
# Summary of the method: as §1
# [30] = target: Neu5Ac(a2-6)Gal(b1-4)GlcNAc(b1-2)Man(a1-3)[GlcNAc(b1-4)][Neu5Ac(a2-6)Gal(b1-4)GlcNAc(b1-2)Man(a1-6)]Man(b1-4)GlcNAc(b1-4)GlcNAc
# Summary of the method: as §1
# [31] = target: Neu5Ac(a2-6)Gal(b1-4)GlcNAc(b1-2)Man(a1-3)[Man(a1-6)]Man(b1-4)GlcNAc(b1-4)GlcNAc
# Summary of the method: as §1
# [32] = target: Neu5Ac(a2-6)Gal(b1-4)GlcNAc(b1-2)Man(a1-3)[Neu5Ac(a2-3)Gal(b1-4)GlcNAc(b1-2)Man(a1-6)]Man(b1-4)GlcNAc(b1-4)GlcNAc
# Summary of the method: as §1
# [33] = target: Neu5Ac(a2-6)Gal(b1-4)GlcNAc(b1-2)Man(a1-3)[Neu5Ac(a2-6)Gal(b1-4)GlcNAc(b1-2)Man(a1-6)]Man(b1-4)GlcNAc(b1-4)GlcNAc
# Summary of the method: as §1
# [34] = target: Neu5Ac(a2-6)Gal(b1-4)GlcNAc(b1-2)Man(a1-3)[Neu5Ac(a2-6)Gal(b1-4)GlcNAc(b1-2)Man(a1-6)]Man(b1-4)GlcNAc(b1-4)[Fuc(a1-6)]GlcNAc
# Summary of the method: as §1
# [35] = target: Neu5Ac(a2-6)Gal(b1-4)GlcNAc(b1-2)Man(a1-6)Man(b1-4)GlcNAc(b1-4)GlcNAc
# Summary of the method: as §1
# [36] = target: Neu5Ac(a2-6)Gal(b1-4)GlcNAc(b1-2)Man(a1-6)[Gal(b1-4)GlcNAc(b1-2)Man(a1-3)]Man(b1-4)GlcNAc(b1-4)GlcNAc
# Summary of the method: as §1
# [37] = target: Neu5Ac(a2-6)Gal(b1-4)GlcNAc(b1-2)Man(a1-6)[GlcNAc(b1-2)Man(a1-3)]Man(b1-4)GlcNAc(b1-4)GlcNAc
# Summary of the method: as §1
# [38] = target: Neu5Ac(a2-6)Gal(b1-4)GlcNAc(b1-2)Man(a1-6)[Man(a1-3)]Man(b1-4)GlcNAc(b1-4)GlcNAc
# Summary of the method: as §1
# [39] = target: Neu5Ac(a2-6)Gal(b1-4)GlcNAc(b1-2)[Neu5Ac(a2-6)Gal(b1-4)GlcNAc(b1-4)]Man(a1-3)[GlcNAc(b1-4)][Neu5Ac(a2-6)Gal(b1-4)GlcNAc(b1-2)[Neu5Ac(a2-6)Gal(b1-4)GlcNAc(b1-6)]Man(a1-6)]Man(b1-4)GlcNAc(b1-4)GlcNAc
# Summary of the method: as §1
# [40] = target: Neu5Ac(a2-6)Gal(b1-4)GlcNAc(b1-2)[Neu5Ac(a2-6)Gal(b1-4)GlcNAc(b1-4)]Man(a1-3)[GlcNAc(b1-4)][Neu5Ac(a2-6)Gal(b1-4)GlcNAc(b1-4)Man(a1-6)]Man(b1-4)GlcNAc(b1-4)GlcNAc
# Summary of the method: as §1
# [41] = target: Neu5Ac(a2-6)Gal(b1-4)GlcNAc(b1-2)[Neu5Ac(a2-6)Gal(b1-4)GlcNAc(b1-6)]Man(a1-6)[Neu5Ac(a2-6)Gal(b1-4)GlcNAc(b1-2)Man(a1-3)][GlcNAc(b1-4)]Man(b1-4)GlcNAc(b1-4)GlcNAc
# Summary of the method: as §1
# [42] = target: Neu5Ac(a2-6)Gal(b1-4)GlcNAc(b1-3)Gal(b1-3)GlcNAc
# Summary of the method: as §1
# [43] = target: Neu5Ac(a2-6)Gal(b1-4)GlcNAc(b1-3)Gal(b1-4)GlcNAc
# Summary of the method: as §1
# [44] = target: Neu5Ac(a2-6)Gal(b1-4)GlcNAc(b1-3)Gal(b1-4)GlcNAc(b1-2)Man(a1-3)[Neu5Ac(a2-6)Gal(b1-4)GlcNAc(b1-3)Gal(b1-4)GlcNAc(b1-2)Man(a1-6)]GalNAc
# Summary of the method: as §1
# [45] = target: Neu5Ac(a2-6)Gal(b1-4)GlcNAc(b1-3)Gal(b1-4)GlcNAc(b1-3)Gal(b1-4)GlcNAc
# Summary of the method: as §1
# [46] = target: Neu5Ac(a2-6)Gal(b1-4)GlcNAc(b1-3)Gal(b1-4)GlcNAc(b1-3)Gal(b1-4)GlcNAc(b1-2)Man(a1-3)[Neu5Ac(a2-6)Gal(b1-4)GlcNAc(b1-3)Gal(b1-4)GlcNAc(b1-3)Gal(b1-4)GlcNAc(b1-2)Man(a1-6)]GalNAc
# Summary of the method: as §1
binder,measurement,setting,value
B1,glycan array binding signal (z-score),[1],-0.479
same,glycan array binding signal (z-score),[2],-0.181
same,glycan array binding signal (z-score),[3],-0.419
same,glycan array binding signal (z-score),[4],-0.525
same,glycan array binding signal (z-score),[5],-0.451
same,glycan array binding signal (z-score),[6],-0.411
same,glycan array binding signal (z-score),[7],-0.38
same,glycan array binding signal (z-score),[8],0.097
same,glycan array binding signal (z-score),[9],-0.253
same,glycan array binding signal (z-score),[10],-0.158
same,glycan array binding signal (z-score),[11],4.21
same,glycan array binding signal (z-score),[12],-0.336
same,glycan array binding signal (z-score),[13],-0.488
same,glycan array binding signal (z-score),[14],-0.235
same,glycan array binding signal (z-score),[15],-0.586
same,glycan array binding signal (z-score),[16],0.038
same,glycan array binding signal (z-score),[17],-0.164
same,glycan array binding signal (z-score),[18],-0.122
same,glycan array binding signal (z-score),[19],-0.266
same,glycan array binding signal (z-score),[20],-0.198
same,glycan array binding signal (z-score),[21],-0.255
same,glycan array binding signal (z-score),[22],-0.372
same,glycan array binding signal (z-score),[23],-0.171
same,glycan array binding signal (z-score),[24],-0.318
same,glycan array binding signal (z-score),[25],-0.226
same,glycan array binding signal (z-score),[26],-0.215
same,glycan array binding signal (z-score),[27],-0.096
same,glycan array binding signal (z-score),[28],-0.42
same,glycan array binding signal (z-score),[29],-0.37
same,glycan array binding signal (z-score),[30],-0.152
same,glycan array binding signal (z-score),[31],-0.041
same,glycan array binding signal (z-score),[32],-0.164
same,glycan array binding signal (z-score),[33],-0.14
same,glycan array binding signal (z-score),[34],-0.219
same,glycan array binding signal (z-score),[35],0.109
same,glycan array binding signal (z-score),[36],-0.479
same,glycan array binding signal (z-score),[37],0.599
same,glycan array binding signal (z-score),[38],-0.19
same,glycan array binding signal (z-score),[39],0.035
same,glycan array binding signal (z-score),[40],-0.358
same,glycan array binding signal (z-score),[41],2.58
same,glycan array binding signal (z-score),[42],-0.352
same,glycan array binding signal (z-score),[43],-0.35
same,glycan array binding signal (z-score),[44],10.6
same,glycan array binding signal (z-score),[45],-0.31
same,glycan array binding signal (z-score),[46],1.36
